Laboratory results as given in the supplement of paper PMC11417369.
± gives the standard deviation of the averaged measurements. This is one part of the list.

tested on: PfAP2-I AP2 domain 3 (GST-tagged); assay: gcPBM binding intensity (ln(normalized median fluorescence intensity)); higher = stronger DNA binding
Summary of the method: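 Binding intensity values are the highest Masliner-normalised natural-log median intensity among replicate spots of either probe orientation. The binding step lasted 1 h in 1× PBS with 1% milk, 0.2 mg/ml BSA, 0.5% salmon testes DNA and 0.03% Triton X-100, using GST-tagged P. falciparum DNA-binding domains expressed in E. coli on an Agilent 4 × 180k array of primer-extended double-stranded 36-bp intergenic genomic probes plus negative controls. Alexa488 anti-GST antibody and a 488 nm scan detected bound protein.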

Sequence	gcPBM binding intensity (ln)
ATTCTAATAGATAGTAGTACCTATAAGTTTTCTTTT [XGTACX_site2315]	7.59 ± 0.46
AAGTTTATTATATATAAATTATTATATATATATATA [CACACA_negctrl_site189]	9.31 ± 0.57
AAAATAATAATTAAATAATAGTAAATGAAAAATAAA [CACACA_negctrl_site57]	8.19 ± 0.29
TATGTGTTCAGTATTGCACACACACTCCAAAATAAA [CACACA_site8018]	9.86 ± 0.59
ACTTCATTTTATAAGTGTACATAATTTGTTTATATA [XGTACX_site5453]	7.96 ± 0.49
ATAAATACTAGGCACACACACATATAGATTTATATA [CACACA_site7064]	8.24 ± 0.59
TATTATTTACTTATTGCACACATATAAAATATATTT [CACACA_site9017]	10.6 ± 0.49
TCACACACTCTCAAAAGTACAAGAAGATTATGAAGA [XGTACX_site4748]	7.83 ± 0.64
ATCTATCATATTTATGCACACAAAAATAATTAATTC [CACACA_site8837]	9.775 ± 0.035
ATGAACTAAACTAATCGTACAATAAGTTTTATTATA [XGTACX_site4891]	7.5 ± 0.53
AAAAAAATATATAAATGTACATATTGTTTAATTAAT [XGTACX_site3794]	7.82 ± 0.43
TTCAACGTTTTGGAATGTACAGAAAGGTATCCATCA [XGTACX_site179]	7.75 ± 0.57
GAAATATAATTTATTACACACATTTTAAAAAAATTC [CACACA_site1087]	7.74 ± 0.18
AAAAAAAAAAAAAAAAAAAAAAAAAAAAAATATGTG [GTGCAC_negctrl_site657]	9.9 ± 0.26
TAAAAGATAAAATATGCATGTGTAATTTTTTTTTTT [TGCATGCA_site955]	7.58 ± 0.49
TTTATAACATTTAAGAGTACAAAAAAATAAATAAAT [XGTACX_site1264]	7.96 ± 0.53
TAATTTATTACCATGTAATTATTACGAATATAGGAT [CACACA_negctrl_site694]	7.76 ± 0.41
AAAAAATTATTAATTTGTACATAAATAACCAAAAAA [XGTACX_site2488]	7.64 ± 0.63
TATATATTAAAATAATCACACACATCAATTAATGGT [CACACA_site8331]	7.64 ± 0.45
TTAAATATAATTATATGTACATATTTATGTATATAT [XGTACX_site5811]	7.74 ± 0.13
AGATTGTATTTATGTACACACATTTTTGGAATATGA [CACACA_site1340]	7.83 ± 0.54
TTGATTAAAATTAGTACACACAAAATACATGCGGGG [CACACA_site5284]	8.73 ± 0.13

Sequence	gcPBM binding intensity (ln)
ATATTATAATGTTTTTACGAATTCGCAAATTATTAT [GTGCAC_negctrl_site470]	7.53 ± 0.64
TTTTTTTTTTTTTTTTTTTTTTTTTTATGATATATA [GTGCAC_negctrl_site365]	8.21 ± 0.8
AATTTACAAAAAAGAAAAAAAAAAAAAAAGATACTT [CACACA_negctrl_site1434]	7.33 ± 0.73
ATATGCACTCATTGTGCACACGCATATTACGAAAAG [CACACA_site2637]	11 ± 0.35
TTAATTATCCATTTTGCACACATTTTAAAACATGAA [CACACA_site189]	9.755 ± 0.078
AAAAAAAAAAAAAACACACACACAAATACAAATGGT [CACACA_site1721]	8.27 ± 0.4
TTTCTTATTTTGGATTGTACGTATATTTTTCATTTT [XGTACX_site224]	8.12 ± 0.3
TATAATAATAATTATACATGCATGAATATTTATATG [TGCATGCA_site811]	7.67 ± 0.21
TCCTATATATAAATATTAATATATATGTATTGGTAT [GTGCAC_negctrl_site23]	7.57 ± 0.51
AACAAAAAAAAAAAAAAAAAAAAAAAAAAAAAAATG [CACACA_negctrl_site1127]	7.83 ± 0.49
ATGGACAAGTTAAACGCACACAAATATATACACCCA [CACACA_site8478]	8.91 ± 0.27
AATAAAAAAAATAGCATACACACATATATACATATA [CACACA_site659]	7.46 ± 0.5
TTACACATGAGAAAATGTACATATAATAAAATATGT [XGTACX_site904]	7.74 ± 0.51
TTATATTTCAATCATATTGTCACAAGTCATATTTAT [GTGCAC_negctrl_site366]	7.48 ± 0.54
TATATATATATGTGCGTGCACGTTACCTTGCTGTTT	10.3 ± 0.61
AAATTTAACAACTTCAAACACACAATATATATATAT [CACACA_site2092]	9.1 ± 0.35
TTTCCAAATACAACTACACACAAACAAAAGTTATAT [CACACA_site6544]	7.72 ± 0.62
TCCATATTTGTTCACACACACACATATTTATATATA [CACACA_site3570]	8.04 ± 0.53
ATTAAATGTTATATTTGTACATATTATATATATATA [XGTACX_site5095]	9.01 ± 0.44
TTCATTTTTTATTATAGTACACATAATATTTGCAGA [XGTACX_site4032]	8.1 ± 0.23
TTTGTTATTTTTTATTGTACTTTTTTTCTTTCATAA [XGTACX_site4302]	8.13 ± 0.52
TTTTTTAAATGTATTAAAATTATATATATATATATA [GTGCAC_negctrl_site570]	9.49 ± 0.47

Sequence	gcPBM binding intensity (ln)
AATCAAAACAACAATAGTACATAAAAAAACAAAACA [XGTACX_site4181]	7.91 ± 0.57
ATACATAAATTTAGAAGTACATAACAAATTTTTAAA [XGTACX_site7448]	7.77 ± 0.4
ATAAAAATTTAAAAAGAACACACGAAAGAAGGACTT [CACACA_site3929]	8.06 ± 0.81
GTGAGCTCAGACTACACACACAAAGAAAAAAATAAA [CACACA_site1553]	7.65 ± 0.47
ATATTTTTAGGTGATTATTATTCGGAGAAGCGAATT [CACACA_negctrl_site1097]	7.41 ± 0.59
TATATAAACACGTACACACACATATCTGTATTTATA [CACACA_site5858]	8.32 ± 0.2
AATACCTACCAAACATGTACATACGCTTCTCAAATA [XGTACX_site5535]	8.29 ± 0.53
ATACAACAAAAATAAGCACACACAAATATACATACA [CACACA_site9201]	8.18 ± 0.4
AACAAATACAGACACACACACACACCCAAAAAAAAA [CACACA_site515]	8.31 ± 0.22
AATAAGAGGATACATTGTACATAAAAAAAAAAAATA [XGTACX_site1815]	7.71 ± 0.38
AGCAAAACAAAAAAATTAAAATTAACATATAATCAT [GTGCAC_negctrl_site393]	7.38 ± 0.62
TTTTGAAGCTTTAAAACATATATATATATATATATA [CACACA_negctrl_site184]	9.62 ± 0.48
TATTGTTCTTATTTAGTGCATATATAATATAATATA [GTGCAC_site9827]	10.3 ± 0.26
ATGTTCTTATTATTGGTGCAAGAATACACAAGAAAA	10.1 ± 0.31
TATGTGAATAAATAAGCACACATAAACACATATATA [CACACA_site9359]	8.06 ± 0.42
AACACATAATAAAATTGTACCCAACATTTCTTTTGA [XGTACX_site8061]	7.63 ± 0.64
GTGTATAGAATGGTTTCTTTTAAGGTTTTTATTTTT [CACACA_negctrl_site564]	8.12 ± 0.17
AGGTTCTTTTTAAATGGTACACATAATTTGAAGATA [XGTACX_site400]	7.76 ± 0.45
ATACCCACTTAAAATACACACACACCGAAAAAAAAA [CACACA_site8867]	8.15 ± 0.6
ATATATTAATAATTTTGTACGCATTTCCTTTTTATT [XGTACX_site1638]	8.03 ± 0.49
GAAAATATTTCCGTATGTACTTATTTTAGTCTACTA [XGTACX_site471]	7.83 ± 0.46
AAAAAAAAAAAAAAATGTACAAATAAAGAAATATGA [XGTACX_site4371]	8.1 ± 0.32

Sequence	gcPBM binding intensity (ln)
AATATTTTCTTGTACGCATGCACATCCAAATTATAT [TGCATGCA_site873]	8.49 ± 0.4
TGACCTGTTCAGGTAACACACATATAAACACATACA [CACACA_site4186]	7.86 ± 0.38
ATACATAAATATATATGTACATATATATATATATAT [XGTACX_site1055]	9.3 ± 0.64
TGCAGTCTGGAGAAACGTACATAGTATCTGGTAGCT [XGTACX_site4937]	7.75 ± 0.74
AAAATATATTTAAATTGTACACGTTACCATAACAAT [XGTACX_site2598]	7.93 ± 0.45
CTTTTTATTTAGAACACACACAAAAAAAAAAAAAAA [CACACA_site1761]	8.08 ± 0.59
ATGAATACAAAATTATACAAAATTATCAAAAGTATG [CACACA_negctrl_site1453]	7.5 ± 0.49
TAATAACATACAGACACACACGTAAAAGCACGTGTA [CACACA_site4299]	8.91 ± 0.41
TACTTTCAAAAGATCACACATATATATATATATATA [CACACA_site5630]	9.3 ± 0.33
ATGACATGTTCTAAATGTACATTTTTTAACCCTTTT [XGTACX_site1858]	7.68 ± 0.63
ATAAATAAATAAGTACATATATATATGTATATATAT [TGCATGCA_negctrl_site223]	8.4 ± 0.31
TATACAAGTATATAGGTGCATATATAAGTATATATT [GTGCAC_site9994]	10.5 ± 0.53
TATGGTTACATTATATGTACTAAACGAATATTTTTA [XGTACX_site5694]	7.43 ± 0.47
ATTATAATGTTAATGTGTACATATGATTCCTTAATT [XGTACX_site181]	7.97 ± 0.51
TATGTTTTTACATATTGTACATATTCTTGTAATACG [XGTACX_site1179]	7.65 ± 0.38
TATGTGTGCAAAAACTGTACACATTAAAGGTATATA [XGTACX_site7627]	9.32 ± 0.28
CATACATACAAACACACACACACACCCATATATATA [CACACA_site2918]	8.38 ± 0.6
TTTTTAACCAAACATCAAAACATATTTTTTTGTTAT [CACACA_negctrl_site385]	7.54 ± 0.39
GTATACCTTTTGACATGTACGTATGTATATTTGGGT [XGTACX_site720]	8.07 ± 0.35
ACTACATTATGTCATACATGCATACATACGTGGTTT [TGCATGCA_site732]	8.23 ± 0.81
AGTAATTTAAGGAATACACACAAGAAAAAAATAAGA [CACACA_site6177]	7.92 ± 0.83
CATTAAAAGTATAATTGTACTTTTCATTTATATATT [XGTACX_site7536]	7.64 ± 0.42
